In the antibiotic and cytotoxicity screens of Wong et al. (2023) one finds cytotoxicity call data, which are given here for 29 compounds.

The list shows a part of the results.

For this assay, the system named is HSkMC (human skeletal muscle cells). The assay is described as follows: cytotoxicity call (relative viability < 0.9). Conditions: 10 µM.
Take `COc1ccc(NC(=O)Nc2ccc3c(c2)C(=O)N([C@@H](C)CO)C[C@@H](C)[C@@H](CN(C)Cc2ccccc2)OCCCC[C@H](C)O3)cc1`: the cytotoxicity call was “inactive”.
Consider `C[C@@H]1CCCCO[C@@H](CN(C)CC2CCCCC2)[C@H](C)CN([C@H](C)CO)C(=O)c2cc(NS(=O)(=O)c3ccc(Cl)cc3)ccc2O1`, for which the cytotoxicity call was “inactive”.
On to `Cc1cc(C)c(C(=O)O)c(=O)[nH]1`, for which the cytotoxicity call was “inactive”.
Take `C[C@H](CO)N1C[C@H](C)[C@@H](CN(C)Cc2ccc(C(=O)Nc3ccccc3N)cc2)OCCCC[C@H](C)Oc2ccc(N(C)C)cc2C1=O`: the cytotoxicity call is “inactive”.
The result for `CC(C)(C)OC(=O)CC[C@@]12N=C(c3ccc(OCCCO)cc3)O[C@@H]1c1ccccc1CN(Cc1ccccc1)C2=O` reads “inactive”.
The result for `C[C@H](CO)N1C[C@H](C)[C@H](CN(C)Cc2ccc3c(c2)OCO3)OCCCC[C@H](C)Oc2ccc(NC(=O)NC3CCCCC3)cc2C1=O` reads “inactive”; that for `C[C@H]1CN([C@@H](C)CO)C(=O)c2cc(NC(=O)CCN3CCOCC3)ccc2O[C@@H]1CN(C)S(C)(=O)=O`, “inactive”.
The result for `COc1ccc(NC(=O)Nc2ccc3c(c2)C(=O)N([C@@H](C)CO)C[C@@H](C)[C@H](CN(C)S(=O)(=O)c2ccc(OC)cc2)OCCCC[C@H](C)O3)cc1` reads “inactive”; that for `C[C@@H]1CCCCO[C@H](CN(C)C(=O)Cc2ccccc2)[C@H](C)CN([C@@H](C)CO)C(=O)c2cc(NC(=O)Cc3ccccc3)ccc2O1`, “inactive”; that for `COc1ccc2c3c(n(c2c1)C)[C@H](CO)N(C[C@]13CN(Cc2ccncc2)C1)C(=O)CN1CCOCC1`, “inactive”.
As to `CNC[C@@H]1Oc2ccc(NS(=O)(=O)c3cn(C)cn3)cc2C(=O)N([C@@H](C)CO)C[C@@H]1C`, the cytotoxicity call was “inactive”.
As to `C[C@@H]1CN([C@@H](C)CO)C(=O)Cc2cc(NC(=O)CCCN(C)C)ccc2O[C@H]1CN(C)S(=O)(=O)c1cccs1`, the cytotoxicity call is “inactive”.
The result for `C[C@@H]1CCCCO[C@@H](CN(C)Cc2ccc(C(=O)O)cc2)[C@@H](C)CN([C@H](C)CO)C(=O)c2cc(NS(=O)(=O)c3ccccc3)ccc2O1` reads “inactive”; that for `NCc1cc(-c2ccccc2Cl)on1`, “inactive”.
As for `C[C@@H]1CN([C@@H](C)CO)C(=O)c2cc(NS(=O)(=O)c3ccc(Cl)cc3)ccc2O[C@@H]1CN(C)S(C)(=O)=O`, the cytotoxicity call was “inactive”.
The result for `CC(=O)Nc1cc2c(s1)CCCC2` reads “inactive”; that for `NCC[C@@H]1CC[C@@H](NC(=O)C2CCC2)[C@@H](CO)O1`, “inactive”.
On to `CC(C)NC(=O)Nc1cccc2c1O[C@H](CN(C)S(=O)(=O)c1cn(C)cn1)[C@H](C)CN([C@H](C)CO)C2=O`, for which the cytotoxicity call is “inactive”.
The result for `C[C@@H]1CCCCO[C@@H](CN(C)C(=O)CCC(F)(F)F)[C@@H](C)CN([C@@H](C)CO)C(=O)c2cc(NC(=O)CCC(F)(F)F)ccc2O1` reads “inactive”; that for `C[C@@H]1CN([C@@H](C)CO)S(=O)(=O)c2ccc(C#Cc3ccccc3)cc2O[C@@H]1CN(C)C(=O)CN(C)C`, “inactive”.
As for `Cc1ccc(S(=O)(=O)N(C)C[C@@H]2OCCCC[C@H](C)Oc3ccc(NC(=O)Nc4c(C)noc4C)cc3C(=O)N([C@@H](C)CO)C[C@H]2C)cc1`, the cytotoxicity call was “inactive”.
The result for `CC[C@@H](O[Si](C#C[Si](C(C)C)(C(C)C)C(C)C)(C(C)C)C(C)C)c1cn(Cc2cccc(Cl)c2)nn1` reads “inactive”; that for `CCOC(=O)CCCCCC(=O)Nc1ccc2c(c1)C(=O)N([C@@H](C)CO)C[C@@H](C)[C@H](CN(C)S(=O)(=O)c1cccs1)OCCCC[C@H](C)O2`, “inactive”.
For `Cn1cnc(S(=O)(=O)N2C[C@H](O)COC[C@H]3O[C@H](CC(=O)NC4CCC4)CC[C@@H]32)c1`, the cytotoxicity call was “inactive”.
The result for `C[C@H]1CN([C@@H](C)CO)C(=O)Cc2cc(NC(=O)CCCCCC(=O)Nc3ccccc3N)ccc2O[C@H]1CN(C)C(=O)Nc1ccc(C(F)(F)F)cc1` reads “inactive”; that for `C[C@H]1CCCCO[C@H](CN(C)C(=O)Nc2ccc3c(c2)OCO3)[C@@H](C)CN([C@@H](C)CO)C(=O)c2cc(NC(=O)c3ccccc3)ccc2O1`, “inactive”; that for `C[C@H](CO)N1C[C@H](C)[C@@H](CN(C)S(=O)(=O)c2cn(C)cn2)Oc2ncc(C3=CCCCC3)cc2C1=O`, “inactive”.
Take `Cc1ccc(S(=O)(=O)N2C[C@H](O)COC[C@H]3O[C@H](CC(=O)N[C@@H]4CCN(Cc5ccccc5)C4)CC[C@@H]32)cc1`: the cytotoxicity call is “inactive”.
The result for `Cc1ccc(S(=O)(=O)N(C)C[C@H]2Oc3ccc(NS(=O)(=O)c4ccccc4)cc3CC(=O)N([C@H](C)CO)C[C@H]2C)cc1` reads “inactive”.
